Drawing on publication PMC9900090, this text covers binding for six substances.

By UniProt entry, the sequences of proteins in these tests, tags left out. Chains listed by the source or under a name are the forms on record and can include a tag or linker. Residues count along the entry.
RPEL1 fragment of cardiac MYOCD (aa 1–50), GFP‐tagged (Q8VIM5, residues 1-50): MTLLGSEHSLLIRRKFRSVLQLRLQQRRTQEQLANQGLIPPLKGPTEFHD
MBM fragment of cardiac MYOCD (aa 1–27), GFP‐tagged (Q8VIM5, residues 1-27): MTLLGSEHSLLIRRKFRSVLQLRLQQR
RPEL2 fragment of cardiac MYOCD (aa 51–84), GFP‐tagged (Q8VIM5, residues 51-84): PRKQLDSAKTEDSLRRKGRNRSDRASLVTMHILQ
RPEL3 fragment of cardiac MYOCD (aa 85–127), GFP‐tagged (Q8VIM5, residues 85-127): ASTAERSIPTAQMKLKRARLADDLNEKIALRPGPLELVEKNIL
UniProt Q8CFN5: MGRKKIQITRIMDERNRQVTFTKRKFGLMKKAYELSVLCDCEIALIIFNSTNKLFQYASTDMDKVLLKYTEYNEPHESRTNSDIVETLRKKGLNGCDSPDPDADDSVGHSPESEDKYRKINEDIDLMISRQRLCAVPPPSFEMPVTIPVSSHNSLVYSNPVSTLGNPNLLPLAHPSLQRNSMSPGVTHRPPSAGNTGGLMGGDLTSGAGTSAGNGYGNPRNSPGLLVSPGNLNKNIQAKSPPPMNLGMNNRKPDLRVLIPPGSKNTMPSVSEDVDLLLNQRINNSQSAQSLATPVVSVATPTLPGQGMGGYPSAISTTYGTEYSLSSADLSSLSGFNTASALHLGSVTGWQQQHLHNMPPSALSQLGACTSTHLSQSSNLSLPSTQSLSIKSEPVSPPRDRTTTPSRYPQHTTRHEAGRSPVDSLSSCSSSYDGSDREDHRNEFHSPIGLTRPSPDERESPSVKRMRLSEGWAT
UniProt Q9H9F9: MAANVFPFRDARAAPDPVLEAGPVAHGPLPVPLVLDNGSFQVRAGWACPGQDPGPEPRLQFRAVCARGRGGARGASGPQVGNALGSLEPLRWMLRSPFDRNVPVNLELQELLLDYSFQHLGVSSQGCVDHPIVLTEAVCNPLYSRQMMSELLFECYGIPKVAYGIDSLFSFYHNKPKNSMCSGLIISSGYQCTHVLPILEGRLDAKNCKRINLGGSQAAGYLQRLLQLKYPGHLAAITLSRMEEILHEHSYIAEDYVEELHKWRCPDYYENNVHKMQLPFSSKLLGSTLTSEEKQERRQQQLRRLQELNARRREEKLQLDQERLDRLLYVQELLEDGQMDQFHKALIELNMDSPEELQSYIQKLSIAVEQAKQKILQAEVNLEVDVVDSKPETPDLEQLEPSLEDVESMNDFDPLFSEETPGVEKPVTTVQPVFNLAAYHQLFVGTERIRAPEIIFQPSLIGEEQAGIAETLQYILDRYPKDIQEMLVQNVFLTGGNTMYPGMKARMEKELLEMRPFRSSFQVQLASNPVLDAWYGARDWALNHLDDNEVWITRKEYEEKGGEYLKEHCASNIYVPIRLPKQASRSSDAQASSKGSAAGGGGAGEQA

Results are given in words; binding and its absence hold for the method and conditions named. In cells and extracts the contact can be indirect. Some entries that bind do so weakly or less than the wild type.

The first test has as its target RPEL1 fragment of cardiac MYOCD (aa 1–50), GFP‐tagged (mouse) (UniProt Q8VIM5). Kind of test: co-IP; competitive binding of in vitro translated myc‐ARP5 and MEF2C‐HA to RPEL1‐GFP; which protein was precipitated is not told; western blot. (Immunoblotting shows a protein as a band on a membrane.)
Regarding “MEF2C‐HA (myocyte enhancer factor 2C, HA‐tagged) (from UniProt Q8CFN5 1-474)”, the binding result is reported as “binds”.
With “myc‐ARP5 (actin‐related protein 5, myc‐tagged) (from UniProt Q9H9F9 1-607)”, the binding entry was “binds”.

Another test deals with FLAG‐tagged ARP5 (actin‐related protein 5) (human) (UniProt Q9H9F9). Kind of test: co-IP; in vitro translated proteins (wheat germ) mixed in binding buffer (0.1% NP‐40, 10% glycerol, 50 mM imidazole, protease inhibitors in 0.5× PBS), incubated with FLAG‐Affinity Gels for 6 h; FLAG‐ARP5 or its fragments held; washed with 1% Triton X‐100, 0.1% sodium deoxycholate, 150 mM KCl, 20 mM Tris–HCl pH 6.8; western blot.
Turning to “MBM fragment of cardiac MYOCD (aa 1–27), GFP‐tagged (from UniProt Q8VIM5 1-27) (domain or fragment)”, the binding result is recorded as “binds”.
On the same count and under the same terms, to “RPEL2 fragment of cardiac MYOCD (aa 51–84), GFP‐tagged (from UniProt Q8VIM5 51-84) (domain or fragment)” belongs “binds weakly”; to “RPEL3 fragment of cardiac MYOCD (aa 85–127), GFP‐tagged (from UniProt Q8VIM5 85-127) (domain or fragment)”, “no binding”; to “RPEL1 fragment of cardiac MYOCD (aa 1–50), GFP‐tagged (from UniProt Q8VIM5 1-50) (domain or fragment)”, “binds”.
